20 molecules from the supplement of paper PMC10369915 can be followed below.

The list shows a part of the results. No stated cut-off is given here; in the data, active = 3.2 or more and inactive = the rest. Most of these values are background signal.
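Further: displayed peptides selected on beads carrying the immobilized SH2 domain, with library peptides lacking any tyrosine serving as negative controls.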

The first test addresses SHP2 C-SH2 domain E139D. Description: enrichment score (SH2-bound / input frequency) (ratio); bacterial display of known human phosphotyrosine sites (pTyr-Var adds point mutants) read by sequencing; higher = stronger binding; tyrosines were phosphorylated by kinases first. The note with it: peptide library: pTyr-Var.
Turning to CTTIHFNFMCN [TP53_Y234_Y234F_YF], the enrichment score is active: 3.86.

As to CTTIHKNYMCN [TP53_Y234_Y234K], the enrichment score was inactive: 1.75.

For CTTIHYNFMCT [TP53_Y234_N239T_YF], the enrichment score was inactive: 3.19.

In the case of CTTIHDNFMCN [TP53_Y234_Y234D_YF], the enrichment score was inactive: 1.54.

With CSTIHYNFMCN [TP53_Y234_T230S_YF], the enrichment score was inactive: 3.18.

Turning to CTTIHHNYMCN [TP53_Y234_Y234H], the enrichment score is inactive: 2.92.

CITIHYNFMCN [TP53_Y234_T230I_YF]: the enrichment score is active: 3.41.

On to CTTIHYNYMCH [TP53_Y234_N239H], for which the enrichment score is active: 4.62.

Take CTTIHYNFMCI [TP53_Y234_N239I_YF]: the enrichment score is active: 4.11.

In the case of CTIIHYNYMCN [TP53_Y234_T231I], the enrichment score is active: 4.86.

With CTTIHYNYMCD [TP53_Y234_N239D], the enrichment score is active: 3.68.

In the case of CTTIHYNYMCS [TP53_Y234_N239S], the enrichment score was active: 5.24.

Regarding CTAIHYNFMCN [TP53_Y234_T231A_YF], the enrichment score was active: 3.95.

As to CTTIHYNYMCK [TP53_Y234_N239K], the enrichment score is active: 3.79.

For the molecule CTTIHYNFMCS [TP53_Y234_N239S_YF], the enrichment score is active: 4.81.

On to CNTIHYNFMCN [TP53_Y234_T230N_YF], for which the enrichment score was active: 3.28.

For CTIIHYNFMCN [TP53_Y234_T231I_YF], the enrichment score was active: 3.57.

For the molecule CTTIHYTYMCN [TP53_Y234_N235T], the enrichment score was active: 3.95.

For the molecule CTNIHYNFMCN [TP53_Y234_T231N_YF], the enrichment score was active: 3.71.

As for CPTIHYNYMCN [TP53_Y234_T230P], the enrichment score was inactive: 2.91.

The target in another test is SHP2 C-SH2 domain wild-type. The test is described as above. The settings on record: peptide library: pTyr-Var.
Regarding CTTIHFNFMCN [TP53_Y234_Y234F_YF], the enrichment score was inactive: 3.05.

CTTIHKNYMCN [TP53_Y234_Y234K]: the enrichment score is inactive: 2.34.

Consider CTTIHYNFMCT [TP53_Y234_N239T_YF], for which the enrichment score was inactive: 3.06.

In the case of CTTIHDNFMCN [TP53_Y234_Y234D_YF], the enrichment score is inactive: 1.54.

As for CSTIHYNFMCN [TP53_Y234_T230S_YF], the enrichment score was inactive: 3.17.

CTTIHHNYMCN [TP53_Y234_Y234H]: the enrichment score was active: 3.53.

Regarding CITIHYNFMCN [TP53_Y234_T230I_YF], the enrichment score was inactive: 2.87.

For CTTIHYNYMCH [TP53_Y234_N239H], the enrichment score was active: 5.4.

Regarding CTTIHYNFMCI [TP53_Y234_N239I_YF], the enrichment score was active: 3.69.

Consider CTIIHYNYMCN [TP53_Y234_T231I], for which the enrichment score is active: 4.59.

On to CTTIHYNYMCD [TP53_Y234_N239D], for which the enrichment score is active: 5.55.

For the molecule CTTIHYNYMCS [TP53_Y234_N239S], the enrichment score is active: 6.05.

Consider CTAIHYNFMCN [TP53_Y234_T231A_YF], for which the enrichment score was active: 3.5.

On to CTTIHYNYMCK [TP53_Y234_N239K], for which the enrichment score was active: 4.1.

In the case of CTTIHYNFMCS [TP53_Y234_N239S_YF], the enrichment score was active: 4.59.

Take CNTIHYNFMCN [TP53_Y234_T230N_YF]: the enrichment score was inactive: 2.82.

In the case of CTIIHYNFMCN [TP53_Y234_T231I_YF], the enrichment score was active: 3.24.

On to CTTIHYTYMCN [TP53_Y234_N235T], for which the enrichment score was active: 4.27.

Consider CTNIHYNFMCN [TP53_Y234_T231N_YF], for which the enrichment score was active: 3.41.

For CPTIHYNYMCN [TP53_Y234_T230P], the enrichment score is active: 4.6.

In another test the target is SHP2 N-SH2 domain L43F. The description is as above. The settings on record: peptide library: pTyr-Var.
On to CTTIHFNFMCN [TP53_Y234_Y234F_YF], for which the enrichment score is inactive: 3.13.

As for CTTIHKNYMCN [TP53_Y234_Y234K], the enrichment score was inactive: 1.64.

With CTTIHYNFMCT [TP53_Y234_N239T_YF], the enrichment score is inactive: 3.01.

For CTTIHDNFMCN [TP53_Y234_Y234D_YF], the enrichment score was inactive: 1.58.

Consider CSTIHYNFMCN [TP53_Y234_T230S_YF], for which the enrichment score was inactive: 2.96.

Take CTTIHHNYMCN [TP53_Y234_Y234H]: the enrichment score was inactive: 2.77.

Turning to CITIHYNFMCN [TP53_Y234_T230I_YF], the enrichment score is inactive: 2.64.

CTTIHYNYMCH [TP53_Y234_N239H]: the enrichment score was active: 3.5.

For CTTIHYNFMCI [TP53_Y234_N239I_YF], the enrichment score was active: 3.55.

Regarding CTIIHYNYMCN [TP53_Y234_T231I], the enrichment score is active: 3.47.

As for CTTIHYNYMCD [TP53_Y234_N239D], the enrichment score is inactive: 2.77.

Turning to CTTIHYNYMCS [TP53_Y234_N239S], the enrichment score is active: 3.69.

Regarding CTAIHYNFMCN [TP53_Y234_T231A_YF], the enrichment score was active: 3.37.

Take CTTIHYNYMCK [TP53_Y234_N239K]: the enrichment score was active: 3.3.

In the case of CTTIHYNFMCS [TP53_Y234_N239S_YF], the enrichment score was active: 4.49.

For CNTIHYNFMCN [TP53_Y234_T230N_YF], the enrichment score was inactive: 2.65.

Regarding CTIIHYNFMCN [TP53_Y234_T231I_YF], the enrichment score was inactive: 3.13.

In the case of CTTIHYTYMCN [TP53_Y234_N235T], the enrichment score was active: 3.71.

For the molecule CTNIHYNFMCN [TP53_Y234_T231N_YF], the enrichment score is active: 3.75.

CPTIHYNYMCN [TP53_Y234_T230P]: the enrichment score was inactive: 1.99.

The target of a further test is SHP2 N-SH2 domain T42A. Described as above. The note with it: peptide library: pTyr-Var.
Turning to CTTIHFNFMCN [TP53_Y234_Y234F_YF], the enrichment score is inactive: 2.64.

Turning to CTTIHKNYMCN [TP53_Y234_Y234K], the enrichment score was inactive: 1.47.

Consider CTTIHYNFMCT [TP53_Y234_N239T_YF], for which the enrichment score was inactive: 2.89.

Turning to CTTIHDNFMCN [TP53_Y234_Y234D_YF], the enrichment score was inactive: 1.49.

As for CSTIHYNFMCN [TP53_Y234_T230S_YF], the enrichment score was inactive: 2.49.

As for CTTIHHNYMCN [TP53_Y234_Y234H], the enrichment score was inactive: 2.26.

As to CITIHYNFMCN [TP53_Y234_T230I_YF], the enrichment score was inactive: 2.34.

CTTIHYNYMCH [TP53_Y234_N239H]: the enrichment score is inactive: 3.1.

Turning to CTTIHYNFMCI [TP53_Y234_N239I_YF], the enrichment score was inactive: 2.85.

Regarding CTIIHYNYMCN [TP53_Y234_T231I], the enrichment score was inactive: 2.67.

As to CTTIHYNYMCD [TP53_Y234_N239D], the enrichment score was inactive: 2.54.

As to CTTIHYNYMCS [TP53_Y234_N239S], the enrichment score is inactive: 3.

CTAIHYNFMCN [TP53_Y234_T231A_YF]: the enrichment score is inactive: 2.82.

For the molecule CTTIHYNYMCK [TP53_Y234_N239K], the enrichment score is inactive: 2.42.

CTTIHYNFMCS [TP53_Y234_N239S_YF]: the enrichment score was active: 3.58.

On to CNTIHYNFMCN [TP53_Y234_T230N_YF], for which the enrichment score was inactive: 2.45.

As for CTIIHYNFMCN [TP53_Y234_T231I_YF], the enrichment score is inactive: 2.53.

As for CTTIHYTYMCN [TP53_Y234_N235T], the enrichment score was active: 3.58.

On to CTNIHYNFMCN [TP53_Y234_T231N_YF], for which the enrichment score was active: 3.38.

Turning to CPTIHYNYMCN [TP53_Y234_T230P], the enrichment score was inactive: 1.58.

For a further test, the target named is SHP2 N-SH2 domain T52S. Described as above. The settings on record: peptide library: pTyr-Var.
Consider CTTIHFNFMCN [TP53_Y234_Y234F_YF], for which the enrichment score was inactive: 2.74.

On to CTTIHKNYMCN [TP53_Y234_Y234K], for which the enrichment score is inactive: 1.47.

Regarding CTTIHYNFMCT [TP53_Y234_N239T_YF], the enrichment score was inactive: 2.33.

Consider CTTIHDNFMCN [TP53_Y234_Y234D_YF], for which the enrichment score was inactive: 1.53.

Regarding CSTIHYNFMCN [TP53_Y234_T230S_YF], the enrichment score was inactive: 2.99.

For CTTIHHNYMCN [TP53_Y234_Y234H], the enrichment score is inactive: 2.7.

As for CITIHYNFMCN [TP53_Y234_T230I_YF], the enrichment score is inactive: 2.5.

Take CTTIHYNYMCH [TP53_Y234_N239H]: the enrichment score is active: 3.51.

Turning to CTTIHYNFMCI [TP53_Y234_N239I_YF], the enrichment score is active: 3.24.

For CTIIHYNYMCN [TP53_Y234_T231I], the enrichment score was active: 3.48.

Take CTTIHYNYMCD [TP53_Y234_N239D]: the enrichment score is inactive: 2.78.

Consider CTTIHYNYMCS [TP53_Y234_N239S], for which the enrichment score is active: 3.75.

Take CTAIHYNFMCN [TP53_Y234_T231A_YF]: the enrichment score was inactive: 3.12.

In the case of CTTIHYNYMCK [TP53_Y234_N239K], the enrichment score was inactive: 2.94.

Turning to CTTIHYNFMCS [TP53_Y234_N239S_YF], the enrichment score was active: 4.32.

As for CNTIHYNFMCN [TP53_Y234_T230N_YF], the enrichment score is inactive: 3.01.

Take CTIIHYNFMCN [TP53_Y234_T231I_YF]: the enrichment score was inactive: 3.01.

As to CTTIHYTYMCN [TP53_Y234_N235T], the enrichment score was active: 3.41.

Take CTNIHYNFMCN [TP53_Y234_T231N_YF]: the enrichment score was active: 3.38.

In the case of CPTIHYNYMCN [TP53_Y234_T230P], the enrichment score is inactive: 2.26.

A further test has as its target SHP2 N-SH2 domain wild-type. The test is described as above. The settings on record: peptide library: pTyr-Var.
On to CTTIHFNFMCN [TP53_Y234_Y234F_YF], for which the enrichment score is inactive: 3.04.

Regarding CTTIHKNYMCN [TP53_Y234_Y234K], the enrichment score was inactive: 1.41.

Regarding CTTIHYNFMCT [TP53_Y234_N239T_YF], the enrichment score was active: 3.8.

As to CTTIHDNFMCN [TP53_Y234_Y234D_YF], the enrichment score was inactive: 1.62.

Take CSTIHYNFMCN [TP53_Y234_T230S_YF]: the enrichment score is inactive: 2.75.

Consider CTTIHHNYMCN [TP53_Y234_Y234H], for which the enrichment score was inactive: 2.24.

Regarding CITIHYNFMCN [TP53_Y234_T230I_YF], the enrichment score was inactive: 2.96.

In the case of CTTIHYNYMCH [TP53_Y234_N239H], the enrichment score is inactive: 3.07.

As to CTTIHYNFMCI [TP53_Y234_N239I_YF], the enrichment score is inactive: 3.13.

With CTIIHYNYMCN [TP53_Y234_T231I], the enrichment score is active: 3.33.

As for CTTIHYNYMCD [TP53_Y234_N239D], the enrichment score was inactive: 2.23.

As for CTTIHYNYMCS [TP53_Y234_N239S], the enrichment score is inactive: 3.12.

With CTAIHYNFMCN [TP53_Y234_T231A_YF], the enrichment score was inactive: 2.81.

Consider CTTIHYNYMCK [TP53_Y234_N239K], for which the enrichment score was active: 3.28.

As for CTTIHYNFMCS [TP53_Y234_N239S_YF], the enrichment score is active: 4.34.

Take CNTIHYNFMCN [TP53_Y234_T230N_YF]: the enrichment score was inactive: 2.46.

Take CTIIHYNFMCN [TP53_Y234_T231I_YF]: the enrichment score was inactive: 3.05.

In the case of CTTIHYTYMCN [TP53_Y234_N235T], the enrichment score is active: 3.46.

For the molecule CTNIHYNFMCN [TP53_Y234_T231N_YF], the enrichment score is inactive: 2.84.

CPTIHYNYMCN [TP53_Y234_T230P]: the enrichment score is inactive: 1.79.
